In a compilation of properties of binary mixtures (doi:10.1021/acs.jpcb.7b06452):
Some of these densities may be calculated back from excess volumes.

Experiment: xn = mol fraction of the nth substance listed
Conditions: 101 kPa

CC(=O)[O-].CCCC[P+](CCCC)(CCCC)CCCC + CC(=O)[O-].CCCC[n+]1ccn(C)c1
mass density [kg/m3]
Conditions	313.15 K	323.15 K	333.15 K	343.15 K	353.15 K
x2 = 0	–	–	916.4	910.4	904.5
x2 = 0.5018	968	–	956.3	950.5	944.7
x2 = 0.751	–	993.1	987.2	981.3	975.5

CCCC[n+]1ccn(C)c1.O=S(=O)([N-]S(=O)(=O)C(F)(F)F)C(F)(F)F + CC(=O)[O-].CCCC[n+]1ccn(C)c1
x2 = 0
Conditions	mass density [kg/m3]
293.15 K	1441.2
313.15 K	1422.1
323.15 K	1412.6
333.15 K	1403.2
343.15 K	1393.9

CC(=O)[O-].CCCC[n+]1ccn(C)c1 + CCCC[n+]1ccn(C)c1.O=S(=O)([N-]S(=O)(=O)C(F)(F)F)C(F)(F)F
mass density [kg/m3]
Conditions	293.15 K	298.15 K	303.15 K	313.15 K	323.15 K	333.15 K	343.15 K	353.15 K
x1 = 0.2512	1370.3	1365.8	1361.3	1352.3	1343.5	1334.6	1325.9	1317.2
x1 = 0.5001	1286.2	1282.1	–	1270	1262	1254	1246.1	1238.2
x1 = 0.7497	1183.7	1180.1	–	1169.2	–	1154.9	1147.9	1140.9
